1 molecule from patent US20070218061A1 (VASGENE THERAPEUTICS, published 2007) can be followed below.

This assay addresses T1, EphrinB2EC-AP from pAPTag2 (human).
T1 construct: also called B2-AP; B2ECAP reagent
T1 chain: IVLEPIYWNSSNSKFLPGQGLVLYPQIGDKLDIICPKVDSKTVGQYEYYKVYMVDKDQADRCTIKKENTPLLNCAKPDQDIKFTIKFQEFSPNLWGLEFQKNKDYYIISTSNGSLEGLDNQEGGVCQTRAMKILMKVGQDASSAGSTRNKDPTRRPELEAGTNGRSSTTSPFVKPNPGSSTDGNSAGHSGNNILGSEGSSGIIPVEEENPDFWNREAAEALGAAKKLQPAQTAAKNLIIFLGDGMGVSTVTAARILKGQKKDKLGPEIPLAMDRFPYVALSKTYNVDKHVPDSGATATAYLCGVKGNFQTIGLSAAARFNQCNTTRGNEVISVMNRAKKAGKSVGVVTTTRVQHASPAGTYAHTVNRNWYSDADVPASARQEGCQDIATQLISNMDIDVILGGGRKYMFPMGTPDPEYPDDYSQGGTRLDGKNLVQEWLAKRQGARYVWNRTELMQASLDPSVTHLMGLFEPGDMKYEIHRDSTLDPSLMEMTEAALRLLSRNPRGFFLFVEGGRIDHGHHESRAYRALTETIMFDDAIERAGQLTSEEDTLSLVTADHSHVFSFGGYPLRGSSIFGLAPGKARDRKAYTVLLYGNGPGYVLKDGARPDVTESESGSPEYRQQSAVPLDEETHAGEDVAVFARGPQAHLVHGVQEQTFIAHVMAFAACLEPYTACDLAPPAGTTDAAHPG
As to the kind of experiment: EphrinB2 binding assay of SP-Sepharose fractions.

B1: HSA-EphB4 protein, mature form (EphB4 ectodomain fused to HSA) (other)
chain: LEETLLNTKLETADLKWVTFPQVDGQWEELSGLDEEQHSVRTYEVCDVQRAPGQAHWLRTGWVPRRGAVHVYATLRFTMLECLSLPRAGRSCKETFTVFYYESDADTATALTPAWMENPYIKVDTVAAEHLTRKRPGAEATGKVNVKTLRLGPLSKAGFYLAFQDQGACMALLSLHLFYKKCAQLTVNLTRFPETVPRELVVPVAGSCVVDAVPAPGPSPSLYCREDGQWAEQPVTGCSCAPGFEAAEGNTKCRACAQGTFKPLSGEGSCQPCPANSHSNTIGSAVCQCRVGYFRARTDPRGAPCTTPPSAPRSVVSRLNGSSLHLEWSAPLESGGREDLTYALRCRECRPGGSCAPCGGDLTFDPGPRDLVEPWVVVRGLRPDFTYTFEVTALNGVSSLATGPVPFEPVNVTTDREVPPAVSDIRVTRSSPSSLSLAWAVPRAPSGAVLDYEVKYHEKGAEGPSSVRFLKTSENRAELRGLKRGASYLVQVRARSEAGYGPFGQEHHSQTQLDESEGWREQSR[about 600 residues not spelt out]
modifications: biotin on carbohydrate chains (sodium meta-periodate oxidation, EZ-Link Biotin Hydrazide)
notes: also called B4-HSA; sB4-HSA
Consider B1, for which the binding result is listed as “binds”.
